What follows are molecules tested against T1, Human GLP-1R (Homo sapiens, UniProt P43220) (assay: HTRF cAMP assay in HEK-293 cells, human GLP-1R).
T1 construct: expressed in transfected cells; host or cells: HEK-293
Format: cell-based
Method: Recombinant HEK-293 cells were grown in T175 culture flasks placed at 37° C. to near confluence in medium (DMEM with 10% FBS) and collected in 2 mL vials in cell culture medium containing 10% DMSO in concentrations of 1-5×10^7 cells/mL. Each vial contained 1.8 mL cell suspension. The vials were slowly frozen to −80° C. in an isopropanol chamber, and then transferred to liquid nitrogen for long term storage.
Prior to their use, frozen cells were thawed quickly at 37° C., washed with 20 mL cell buffer (1×HBSS; 20 mM HEPES, 0.1% BSA) and centrifuged for 5 minutes at 900 rpm. Cells were resuspended in assay buffer (cell buffer plus 2 mM IBMX) and adjusted to a cell density of 1×10^6 cells/mL. For measurement, 5 μL cell suspension (final 5×10^3 cells/well) and 5 μL of test compound were added to a well of a 384-well plate, followed by incubation for 30 minutes at room temperature. […] The cAMP content of cells was determined using a kit from Cisbio Corp. (cat. no. 62AM4PEC) based on Homogenous Time Resolved Fluorescence (HTRF).

T1 sequence (P43220 24-463): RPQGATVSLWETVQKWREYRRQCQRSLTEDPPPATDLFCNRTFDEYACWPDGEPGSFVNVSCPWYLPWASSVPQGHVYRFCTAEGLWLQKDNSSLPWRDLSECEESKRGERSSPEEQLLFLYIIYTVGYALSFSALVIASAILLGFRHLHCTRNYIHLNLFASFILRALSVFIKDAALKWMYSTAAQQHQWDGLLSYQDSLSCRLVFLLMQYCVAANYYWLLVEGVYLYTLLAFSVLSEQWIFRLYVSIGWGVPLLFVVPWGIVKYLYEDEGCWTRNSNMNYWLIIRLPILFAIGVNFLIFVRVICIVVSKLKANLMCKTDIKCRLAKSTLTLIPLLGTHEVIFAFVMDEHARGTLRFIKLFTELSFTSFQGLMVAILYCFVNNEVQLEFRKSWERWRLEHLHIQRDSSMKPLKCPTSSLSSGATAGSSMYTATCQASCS

Molecule | EC50 [nM]
124 (protein, Fusion Protein) HGEGTFTSDKSKLLEKRLAHLFIEWLIAGGHSKGKPPPKGGGGGGGSGGGGSGGGGSA[… human IgG4 Fc with changes …]GGGSGSAHPIPDSSPLLQFGGQVRQRYLYTDDACQTEAHLEIREDGTVGGAADQSPESLLQLKALKPGVIQILGVKTSRFLCQRPDGALYGSLHFDPEACSFRELLLEDGYNVYQSEAHGLPLHLPGCKSPHRDPAPRGPARFLPLPGLPPAPPEPPGILAPQPPDVGSSDPLSMVGSQGRSPSYAS | 0.0106
126 (protein, Fusion Protein) HGEGTFTSDKSKLLEKRAAHLFIEWLIAGGHSSIKPPPKGGGGGGGSGGGGSGGGGSA[… human IgG4 Fc with changes …]GGGSGSAHPIPDSSPLLQFGGQVRQRYLYTDDACQTEAHLEIREDGTVGGAADQSPESLLQLKALKPGVIQILGVKTSRFLCQRPDGALYGSLHFDPEACSFRELLLEDGYNVYQSEAHGLPLHLPGCKSPHRDPAPRGPARFLPLPGLPPAPPEPPGILAPQPPDVGSSDPLSMVGSQGRSPSYAS | 0.00851
127 (protein, Fusion Protein) HGEGTFTSDKSQLLEKRLAHLFIEWLIKGGHSSGRPPPKGGGGGGGSGGGGSGGGGSA[… human IgG4 Fc with changes …]GGGSGSAHPIPDSSPLLQFGGQVRQRYLYTDDACQTEAHLEIREDGTVGGAADQSPESLLQLKALKPGVIQILGVKTSRFLCQRPDGALYGSLHFDPEACSFRELLLEDGYNVYQSEAHGLPLHLPGCKSPHRDPAPRGPARFLPLPGLPPAPPEPPGILAPQPPDVGSSDPLSMVGSQGRSPSYAS | 0.0103
128 (protein, Fusion Protein) HGEGTFTSDKSQLLEKRLAHLFIEWLIKGGHSKGKYPPKGGGGGGGSGGGGSGGGGSA[… human IgG4 Fc with changes …]GGGSGSAHPIPDSSPLLQFGGQVRQRYLYTDDACQTEAHLEIREDGTVGGAADQSPESLLQLKALKPGVIQILGVKTSRFLCQRPDGALYGSLHFDPEACSFRELLLEDGYNVYQSEAHGLPLHLPGCKSPHRDPAPRGPARFLPLPGLPPAPPEPPGILAPQPPDVGSSDPLSMVGSQGRSPSYAS | 0.00983
130 (protein, Fusion Protein) HGEGTFTSDKSQLLEKELAHLFIEWLLAGGHSKGKPPPKGGGGGGGSGGGGSGGGGSA[… human IgG4 Fc with changes …]GGGSGSAHPIPDSSPLLQFGGQVRQRYLYTDDACQTEAHLEIREDGTVGGAADQSPESLLQLKALKPGVIQILGVKTSRFLCQRPDGALYGSLHFDPEACSFRELLLEDGYNVYQSEAHGLPLHLPGCKSPHRDPAPRGPARFLPLPGLPPAPPEPPGILAPQPPDVGSSDPLSMVGSQGRSPSYAS | 0.00738
132 (protein, Fusion Protein) HGEGTFTSDKSQLLEKRLAHLFIEWLLAGGHSSGKLSPKGGGGGGGSGGGGSGGGGSA[… human IgG4 Fc with changes …]GGGSGSAHPIPDSSPLLQFGGQVRQRYLYTDDACQTEAHLEIREDGTVGGAADQSPESLLQLKALKPGVIQILGVKTSRFLCQRPDGALYGSLHFDPEACSFRELLLEDGYNVYQSEAHGLPLHLPGCKSPHRDPAPRGPARFLPLPGLPPAPPEPPGILAPQPPDVGSSDPLSMVGSQGRSPSYAS | 0.00848
133 (protein, Fusion Protein) HGEGTFTSDKSQLLEKRLAHLFIEWLIKGGHSKQKPPPKGGGGGGGSGGGGSGGGGSA[… human IgG4 Fc with changes …]GGGSGSAHPIPDSSPLLQFGGQVRQRYLYTDDACQTEAHLEIREDGTVGGAADQSPESLLQLKALKPGVIQILGVKTSRFLCQRPDGALYGSLHFDPEACSFRELLLEDGYNVYQSEAHGLPLHLPGCKSPHRDPAPRGPARFLPLPGLPPAPPEPPGILAPQPPDVGSSDPLSMVGSQGRSPSYAS | 0.0134
134 (protein, Fusion Protein) HGEGTFTSDKSKLLEKRLAHLFIEWLIKGGHKSGKPPPKGGGGGGGSGGGGSGGGGSA[… human IgG4 Fc with changes …]GGGSGSAHPIPDSSPLLQFGGQVRQRYLYTDDACQTEAHLEIREDGTVGGAADQSPESLLQLKALKPGVIQILGVKTSRFLCQRPDGALYGSLHFDPEACSFRELLLEDGYNVYQSEAHGLPLHLPGCKSPHRDPAPRGPARFLPLPGLPPAPPEPPGILAPQPPDVGSSDPLSMVGSQGRSPSYAS | 0.0173
135 (protein, Fusion Protein) HGEGTFTSDKSQLLEERLVHLFIEWLIAGGHSSGKLPPKGGGGGGGSGGGGSGGGGSA[… human IgG4 Fc with changes …]GGGSGSAHPIPDSSPLLQFGGQVRQRYLYTDDACQTEAHLEIREDGTVGGAADQSPESLLQLKALKPGVIQILGVKTSRFLCQRPDGALYGSLHFDPEACSFRELLLEDGYNVYQSEAHGLPLHLPGCKSPHRDPAPRGPARFLPLPGLPPAPPEPPGILAPQPPDVGSSDPLSMVGSQGRSPSYAS | 0.0115
136 (protein, Fusion Protein) HGEGTFTSDKSKLLEKRLAHLFIEWLLAGGHSKGKPPPKGGGGGGGSGGGGSGGGGSA[… human IgG4 Fc with changes …]GGGSGSAHPIPDSSPLLQFGGQVRQRYLYTDDACQTEAHLEIREDGTVGGAADQSPESLLQLKALKPGVIQILGVKTSRFLCQRPDGALYGSLHFDPEACSFRELLLEDGYNVYQSEAHGLPLHLPGCKSPHRDPAPRGPARFLPLPGLPPAPPEPPGILAPQPPDVGSSDPLSMVGSQGRSPSYAS | 0.0118
139 (protein, Fusion Protein) HGEGTFTSDKSQLLEKRAAHLFIEWLIAGGHSSGKLSPKGGGGGGGSGGGGSGGGGSA[… human IgG4 Fc with changes …]GGGSGSAHPIPDSSPLLQFGGQVRQRYLYTDDACQTEAHLEIREDGTVGGAADQSPESLLQLKALKPGVIQILGVKTSRFLCQRPDGALYGSLHFDPEACSFRELLLEDGYNVYQSEAHGLPLHLPGCKSPHRDPAPRGPARFLPLPGLPPAPPEPPGILAPQPPDVGSSDPLSMVGSQGRSPSYAS | 0.00735
142 (protein, Fusion Protein) HGEGTFTSDKSQLLEKRLAHLFIEWLIAGGHKSGKYSPKGGGGGGGSGGGGSGGGGSA[… human IgG4 Fc with changes …]GGGSGSAHPIPDSSPLLQFGGQVRQRYLYTDDACQTEAHLEIREDGTVGGAADQSPESLLQLKALKPGVIQILGVKTSRFLCQRPDGALYGSLHFDPEACSFRELLLEDGYNVYQSEAHGLPLHLPGCKSPHRDPAPRGPARFLPLPGLPPAPPEPPGILAPQPPDVGSSDPLSMVGSQGRSPSYAS | 0.0129
143 (protein, Fusion Protein) HGEGTFTSDKSQLLEKRLAHLFIEWLLKGGHSKGKPPPKGGGGGGGSGGGGSGGGGSA[… human IgG4 Fc with changes …]GGGSGSAHPIPDSSPLLQFGGQVRQRYLYTDDACQTEAHLEIREDGTVGGAADQSPESLLQLKALKPGVIQILGVKTSRFLCQRPDGALYGSLHFDPEACSFRELLLEDGYNVYQSEAHGLPLHLPGCKSPHRDPAPRGPARFLPLPGLPPAPPEPPGILAPQPPDVGSSDPLSMVGSQGRSPSYAS | 0.0142
144 (protein, Fusion Protein) HGEGTFTSDKSQLLEKRLAHLFIEWLIKGGPSSIKPPPKGGGGGGGSGGGGSGGGGSA[… human IgG4 Fc with changes …]GGGSGSAHPIPDSSPLLQFGGQVRQRYLYTDDACQTEAHLEIREDGTVGGAADQSPESLLQLKALKPGVIQILGVKTSRFLCQRPDGALYGSLHFDPEACSFRELLLEDGYNVYQSEAHGLPLHLPGCKSPHRDPAPRGPARFLPLPGLPPAPPEPPGILAPQPPDVGSSDPLSMVGSQGRSPSYAS | 0.0162
145 (protein, Fusion Protein) HGEGTFTSDKSQLLEKRLAHLFIEWLIKGGHSSIRPPPKGGGGGGGSGGGGSGGGGSA[… human IgG4 Fc with changes …]GGGSGSAHPIPDSSPLLQFGGQVRQRYLYTDDACQTEAHLEIREDGTVGGAADQSPESLLQLKALKPGVIQILGVKTSRFLCQRPDGALYGSLHFDPEACSFRELLLEDGYNVYQSEAHGLPLHLPGCKSPHRDPAPRGPARFLPLPGLPPAPPEPPGILAPQPPDVGSSDPLSMVGSQGRSPSYAS | 0.00763
146 (protein, Fusion Protein) HGEGTFTSDKSQLLEKRLAHLFIEWLLAGGHKKGKPPPKGGGGGGGSGGGGSGGGGSA[… human IgG4 Fc with changes …]GGGSGSAHPIPDSSPLLQFGGQVRQRYLYTDDACQTEAHLEIREDGTVGGAADQSPESLLQLKALKPGVIQILGVKTSRFLCQRPDGALYGSLHFDPEACSFRELLLEDGYNVYQSEAHGLPLHLPGCKSPHRDPAPRGPARFLPLPGLPPAPPEPPGILAPQPPDVGSSDPLSMVGSQGRSPSYAS | 0.0123
147 (protein, Fusion Protein) HGEGTFTSDKSQLLEKRLAHLFIEWLLKGGHSSGRPPPKGGGGGGGSGGGGSGGGGSA[… human IgG4 Fc with changes …]GGGSGSAHPIPDSSPLLQFGGQVRQRYLYTDDACQTEAHLEIREDGTVGGAADQSPESLLQLKALKPGVIQILGVKTSRFLCQRPDGALYGSLHFDPEACSFRELLLEDGYNVYQSEAHGLPLHLPGCKSPHRDPAPRGPARFLPLPGLPPAPPEPPGILAPQPPDVGSSDPLSMVGSQGRSPSYAS | 0.0101

— patent US20230250147A1, “GLP-1R AGONISTIC PEPTIDES WITH REDUCED ACTIVITY” (SANOFI, priority 2020, published 2023)
